Laboratory results taken from PubChem BioAssay (NCATS).
Results filed as inconclusive are left out. The call rests on the fitted dose curve; in most records, active means well fitted inhibition curve with a large enough effect; inconclusive means small, poorly fitted or top-dose-only effect; inactive means no such curve, though single readings can be large or run the other way. More than one record can exist for a structure, and the calls need not agree. Certain results were filed several times, with different values. Only these are listed. The source may hold further records. Results that share an entry are repeats (runs, samples, wells, individuals or studies). Marks in square brackets tell the records apart. Letters count within one entry.

Tested on: Zika virus NS2B-NS3 protease (linked construct)
Assay: Primary screen NINDS Rhodamine qHTS for Zika virus inhibitors (AID 1347160); further: nearly all actives have a fitted effect of over 55% in size
How it was run: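 Single-chain NS2B-NS3 protease, 25 nM, pH 8.0; compounds preincubated 15 min. Activity: Rhodamine110 release from 1.5 microM substrate over 15 min, room temperature, data fitted to 4-parameter Hill.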
Potency means the concentration at half of the fitted maximal effect.

Question: With `CC(=O)O[C@H]1C[C@@]2(C)[C@@H](CC[C@H]3[C@@]4(C)C=CC(=O)[C@@H](C)[C@@H]4[C@H](OC(C)=O)C(=O)[C@@]32C)/C1=C(\CCC=C(C)C)C(=O)O` as the molecule, how does the Potency read?
Answer: inactive [sample A] and active: 17.5 µM [sample B]
